Where two headings read alike, the source gives them in different places. At least one compound was matched to its structure with a doubt left. Starred links: 1 amine or outer side, 2 acyl side, 3 side chain; linkers in the order of their positions; H or OH if unused. Non-standard residues stand in square brackets, D forms with d. Groups on a side chain read outwards from the residue. No end group written: not given here. *: point of attachment. C20 diacid = O=C(O)CCCCCCCCCCCCCCCCCCC(=O)*; γGlu = O=C(O)[C@H](CCC(=O)[*:2])N[*:1]; εLys = N[C@@H](CCCCN[*:1])C(=O)[*:2]; Aib = CC(C)(N)C(=O)O
Legend:
Format in all cases: cell-based
[1] = target: T1, hNPY2R (Homo sapiens, UniProt P49146); assay: hNPY2R CreLuc reporter gene assay in 0.5% and 100% plasma
T1 construct: expressed in transfected cells; host or cells: HEK-293 cells carrying a CRE-luciferase reporter gene
T1 sequence (P49146 1-381): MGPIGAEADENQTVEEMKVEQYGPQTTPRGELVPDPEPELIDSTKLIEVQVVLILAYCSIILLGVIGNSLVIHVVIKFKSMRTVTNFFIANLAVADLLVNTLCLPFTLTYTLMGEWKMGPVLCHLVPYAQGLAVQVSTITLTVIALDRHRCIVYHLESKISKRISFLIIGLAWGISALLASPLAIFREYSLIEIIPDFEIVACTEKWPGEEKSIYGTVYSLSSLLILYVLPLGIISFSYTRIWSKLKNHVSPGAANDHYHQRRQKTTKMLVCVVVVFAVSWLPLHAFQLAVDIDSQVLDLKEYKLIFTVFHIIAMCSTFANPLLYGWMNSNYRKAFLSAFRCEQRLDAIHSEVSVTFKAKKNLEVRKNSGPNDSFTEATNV
Procedure, shortened: (§1)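 HEK cells (GLP-1R, NPY2R) or CHO cells (GIPR) carrying a CRE-luciferase reporter, incubated 4 h at 37 °C with peptides in HBSS/20 mM HEPES pH 7.4 plus 0.5% human plasma, or in 100% plasma. Luminescence read; EC50 from 8-point variable-slope sigmoid fits.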

[2] = target: T2, hGIPR (Homo sapiens, UniProt P48546); assay: hGIPR CreLuc reporter gene assay in 0.5% and 100% plasma
T2 construct: expressed in transfected cells; host or cells: CHO cells carrying a CRE-luciferase reporter gene
T2 sequence (P48546 22-466): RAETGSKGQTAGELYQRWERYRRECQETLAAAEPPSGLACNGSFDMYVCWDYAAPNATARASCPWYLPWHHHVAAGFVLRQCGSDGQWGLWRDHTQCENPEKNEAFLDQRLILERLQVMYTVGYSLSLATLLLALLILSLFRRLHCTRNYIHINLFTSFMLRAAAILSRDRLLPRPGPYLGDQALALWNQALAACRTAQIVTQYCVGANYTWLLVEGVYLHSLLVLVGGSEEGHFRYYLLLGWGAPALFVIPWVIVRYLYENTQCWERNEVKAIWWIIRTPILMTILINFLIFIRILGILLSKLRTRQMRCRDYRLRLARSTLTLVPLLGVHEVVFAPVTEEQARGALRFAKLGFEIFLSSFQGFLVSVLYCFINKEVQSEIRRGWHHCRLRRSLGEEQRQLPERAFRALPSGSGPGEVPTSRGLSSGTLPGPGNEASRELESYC
Procedure, shortened: as §1

[3] = target: T3, hGLP1R (Homo sapiens, UniProt P43220); assay: hGLP1R CreLuc reporter gene assay in 0.5% and 100% plasma
T3 construct: expressed in transfected cells; host or cells: HEK-293 cells carrying a CRE-luciferase reporter gene
Procedure, shortened: as §1

[4] = 0.5% human plasma, read-out: hNPY2R 0.5% hP
[5] = 0.5% human plasma, read-out: hGIPR 0.5% hP
[6] = 100% human plasma, read-out: hGIPR 100% hP
[7] = 0.5% human plasma, read-out: hGLP1R 0.5% hP
[8] = 100% human plasma, read-out: hNPY2R 100% hP

T3 sequence (P43220 24-463): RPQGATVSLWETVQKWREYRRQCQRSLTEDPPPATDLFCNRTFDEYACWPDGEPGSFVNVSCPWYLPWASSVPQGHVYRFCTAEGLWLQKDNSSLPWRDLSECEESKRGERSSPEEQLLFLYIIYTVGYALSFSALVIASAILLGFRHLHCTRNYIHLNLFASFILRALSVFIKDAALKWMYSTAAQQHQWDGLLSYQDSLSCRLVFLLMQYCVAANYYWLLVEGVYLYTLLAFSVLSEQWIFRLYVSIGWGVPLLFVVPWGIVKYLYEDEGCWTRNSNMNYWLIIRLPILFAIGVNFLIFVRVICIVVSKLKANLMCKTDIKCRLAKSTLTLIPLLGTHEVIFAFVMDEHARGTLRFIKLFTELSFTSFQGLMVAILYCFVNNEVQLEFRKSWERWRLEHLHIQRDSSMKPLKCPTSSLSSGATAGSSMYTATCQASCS

Compound | EC50 [1, 4] [nM] | EC50 [2, 5] [nM] | EC50 [2, 6] [nM] | EC50 [3, 7] [nM] | EC50 [1, 8] [nM] | EC50 ([3]; 100% human plasma, read-out: hGLP1R 100% hP) [nM]
CC[C@H](C)[C@H](NC(=O)[C@H](CC(C)C)NC(=O)[C@H](Cc1c[nH]c2ccccc12)NC(=O)[C@H](CCC(N)=O)NC(=O)[C@@H](NC(=O)[C@H](Cc1ccccc1)NC(=O)[C@H](C)NC(=O)C(C)(C)NC(=O)[C@H](CCC(N)=O)NC(=O)[C@H](C)NC(=O)[C@H](CCC(N)=O)NC(=O)[C@H](CCC(=O)O)NC(=O)[C@H](CCC(=O)O)NC(=O)[C@H](CC(C)C)NC(=O)C(C)(C)NC(=O)[C@@H](NC(=O)[C@H](CO)NC(=O)[C@H](Cc1ccc(O)cc1)NC(=O)[C@H](CC(=O)O)NC(=O)[C@H](CO)NC(=O)[C@@H](NC(=O)[C@H](Cc1ccccc1)NC(=O)[C@@H](NC(=O)CNC(=O)[C@H](CCC(=O)O)NC(=O)C(C)(C)NC(=O)[C@@H](N)Cc1ccc(O)cc1)[C@@H](C)O)[C@@H](C)O)[C@@H](C)CC)C(C)C)C(=O)N[C@@H](CCCCNC(=O)[C@@H](N)CCCCNC(=O)CC[C@H](NC(=O)CC[C@H](NC(=O)CC[C@H](NC(=O)CC[C@H](NC(=O)[C@H](CCC(=O)O)NC(=O)CC[C@H](NC(=O)CCCCCCCCCCCCCCCCCCC(=O)O)C(=O)O)C(=O)O)C(=O)O)C(=O)O)C(=O)O)C(=O)NCC(=O)NCC(=O)N1CCC[C@H]1C(=O)N[C@@H](CO)C(=O)N[C@@H](CO)C(=O)NCC(=O)N[C@@H](CCC(N)=O)C(=O)N[C@@H](CO)C(=O)N[C@@H](CC(C)C)C(=O)N[C@@H](CCCNC(=N)N)C(=O)N[C@@H](Cc1c[nH]cn1)C(=O)N[C@@H](Cc1ccc(O)cc1)C(=O)N[C@@H](Cc1ccc(O)cc1)C(=O)N[C@@H](CC(N)=O)C(=O)N[C@@H](Cc1c[nH]c2ccccc12)C(=O)N[C@@H](CC(C)C)C(=O)N[C@H](C(=O)N[C@@H](CCCNC(=N)N)C(=O)N[C@@H](CCC(N)=O)C(=O)N[C@@H](CCCNC(=N)N)C(=O)N[C@@H](Cc1ccc(O)cc1)C(N)=O)[C@@H](C)O [Compound 8, Y-Aib-E-G-T-F-T-S-D-Y-S-I-Aib-L-E-E-Q-A-Q-Aib-A-F-V-Q-W-L-I-K(1,3)-GGPSSGQSLRHYYNWLTRQRY-NH2.C20DA-gGlu-Glu-gGlu-gGlu-gGlu-gGlu-eLys(1,2)] | 11.6 | 0.12 | 1.72 | 0.04 |  | 
CC[C@H](C)[C@H](NC(=O)[C@H](CC(C)C)NC(=O)[C@H](Cc1c[nH]c2ccccc12)NC(=O)[C@H](CCC(=O)O)NC(=O)[C@@H](NC(=O)[C@H](Cc1ccccc1)NC(=O)[C@H](C)NC(=O)C(C)(C)NC(=O)[C@H](CCC(N)=O)NC(=O)[C@H](C)NC(=O)[C@H](CCC(N)=O)NC(=O)[C@H](CCCCN)NC(=O)[C@H](CCC(=O)O)NC(=O)[C@H](CC(C)C)NC(=O)C(C)(C)NC(=O)[C@@H](NC(=O)[C@H](CO)NC(=O)[C@H](Cc1ccc(O)cc1)NC(=O)[C@H](CC(=O)O)NC(=O)[C@H](CO)NC(=O)[C@@H](NC(=O)[C@H](Cc1ccccc1)NC(=O)[C@@H](NC(=O)CNC(=O)[C@H](CCC(=O)O)NC(=O)C(C)(C)NC(=O)[C@@H](N)Cc1ccc(O)cc1)[C@@H](C)O)[C@@H](C)O)[C@@H](C)CC)[C@@H](C)CC)C(=O)N[C@@H](CCCCNC(=O)[C@@H](N)CCCCNC(=O)CC[C@H](NC(=O)CC[C@H](NC(=O)[C@H](CCC(=O)O)NC(=O)CC[C@H](NC(=O)CC[C@H](NC(=O)CC[C@H](NC(=O)CCCCCCCCCCCCCCCCCCC(=O)O)C(=O)O)C(=O)O)C(=O)O)C(=O)O)C(=O)O)C(=O)NCC(=O)NCC(=O)N1CCC[C@H]1C(=O)N[C@@H](CO)C(=O)N[C@@H](CO)C(=O)NCC(=O)N[C@@H](C)C(=O)N[C@@H](CO)C(=O)N[C@@H](CC(C)C)C(=O)N[C@@H](CCCNC(=N)N)C(=O)N[C@@H](Cc1c[nH]cn1)C(=O)N[C@@H](Cc1ccc(O)cc1)C(=O)N[C@@H](Cc1ccc(O)cc1)C(=O)N[C@@H](CC(N)=O)C(=O)N[C@@H](Cc1c[nH]c2ccccc12)C(=O)N[C@@H](CC(C)C)C(=O)N[C@H](C(=O)N[C@@H](CCCNC(=N)N)C(=O)N[C@@H](CCC(N)=O)C(=O)N[C@@H](CCCNC(=N)N)C(=O)N[C@@H](Cc1ccc(O)cc1)C(N)=O)[C@@H](C)O [Compound 130, Y-Aib-E-G-T-F-T-S-D-Y-S-I-Aib-L-E-K-Q-A-Q-Aib-A-F-I-E-W-L-I-K(1,3)-GGPSSGASLRHYYNWLTRQRY-NH2.C20DA-gGlu-gGlu-gGlu-Glu-gGlu-gGlu-eLys(1,2)] | 18 | 0.11 | 0.98 | 0.13 | 54.8 | 1.18
Y[Aib]EGTFTSDYSI[Aib]LEKQAQ[Aib]AFVEWLIK([γGlu-γGlu-Glu-γGlu-γGlu-γGlu-C20 diacid])GGPSSGVSLRHYYNWLTRQRY-NH2 [Compound 212, Y-Aib-E-G-T-F-T-S-D-Y-S-I-Aib-L-E-K-Q-A-Q-Aib-A-F-V-E-W-L-I-K(1,3)-GGPSSGVSLRHYYNWLTRQRY-NH2.C20DA-gGlu-gGlu-gGlu-Glu-gGlu-gGlu(1,2)] | 13.5 | 0.24 | 1.83 | 0.11 | 122 | 
CC[C@H](C)[C@H](NC(=O)[C@H](CC(C)C)NC(=O)[C@H](Cc1c[nH]c2ccccc12)NC(=O)[C@H](CCC(=O)O)NC(=O)[C@@H](NC(=O)[C@H](Cc1ccccc1)NC(=O)[C@H](C)NC(=O)C(C)(C)NC(=O)[C@H](CCC(N)=O)NC(=O)[C@H](C)NC(=O)[C@H](CCC(N)=O)NC(=O)[C@H](CCCCN)NC(=O)[C@H](CCC(=O)O)NC(=O)[C@H](CC(C)C)NC(=O)C(C)(C)NC(=O)[C@@H](NC(=O)[C@H](CO)NC(=O)[C@H](Cc1ccc(O)cc1)NC(=O)[C@H](CC(=O)O)NC(=O)[C@H](CO)NC(=O)[C@@H](NC(=O)[C@H](Cc1ccccc1)NC(=O)[C@@H](NC(=O)CNC(=O)[C@H](CCC(=O)O)NC(=O)C(C)(C)NC(=O)[C@@H](N)Cc1ccc(O)cc1)[C@@H](C)O)[C@@H](C)O)[C@@H](C)CC)C(C)C)C(=O)N[C@@H](CCCCNC(=O)[C@@H](N)CCCCNC(=O)[C@H](CCC(=O)O)NC(=O)CC[C@H](NC(=O)CC[C@H](NC(=O)CC[C@H](NC(=O)CC[C@H](NC(=O)CC[C@H](NC(=O)CCCCCCCCCCCCCCCCCCC(=O)O)C(=O)O)C(=O)O)C(=O)O)C(=O)O)C(=O)O)C(=O)NCC(=O)NCC(=O)N1CCC[C@H]1C(=O)N[C@@H](CO)C(=O)N[C@@H](CO)C(=O)N[C@@H](Cc1ccc(O)cc1)C(=O)N[C@@H](C)C(=O)N[C@@H](CO)C(=O)N[C@@H](CC(C)C)C(=O)N[C@@H](CCCNC(=N)N)C(=O)N[C@@H](Cc1c[nH]cn1)C(=O)N[C@@H](Cc1ccc(O)cc1)C(=O)N[C@@H](Cc1ccc(O)cc1)C(=O)N[C@@H](CC(N)=O)C(=O)N[C@@H](Cc1c[nH]c2ccccc12)C(=O)N[C@@H](CC(C)C)C(=O)N[C@H](C(=O)N[C@@H](CCCNC(=N)N)C(=O)N[C@@H](CCC(N)=O)C(=O)N[C@@H](CCCNC(=N)N)C(=O)N[C@@H](Cc1ccc(O)cc1)C(N)=O)[C@@H](C)O [Compound 126, Y-Aib-E-G-T-F-T-S-D-Y-S-I-Aib-L-E-K-Q-A-Q-Aib-A-F-V-E-W-L-I-K(1,3)-GGPSSYASLRHYYNWLTRQRY-NH2.C20DA-gGlu-gGlu-gGlu-gGlu-gGlu-Glu-eLys(1,2)] | 15.1 | 0.1 | 1.27 | 0.18 | 41.7 | 
Y[Aib]EGTFTSDYSI[Aib]LEKQAQ[Aib]AFVEWLIK([εLys-Glu-γGlu-γGlu-γGlu-γGlu-C20 diacid])GGPSYYVSLRHYYNWLTRQRY-NH2 [Compound 75, Y-Aib-E-G-T-F-T-S-D-Y-S-I-Aib-L-E-K-Q-A-Q-Aib-A-F-V-E-W-L-I-K(1,3)-GGPSYYVSLRHYYNWLTRQRY-NH2.C20DA-gGlu-gGlu-gGlu-gGlu-Glu-eLys(1,2)] |  | 0.54 | 12.4 | 0.35 | 33.5 | 

From patent publication US20240247080A1, “GLP1/GIP/NPY2 RECEPTOR TRIPLE AGONISTS” (Boehringer Ingelheim International GmbH, priority 2022, published 2024)
